From PMC5892938 come the findings set out here.

The other results are listed elsewhere or left out. At the low end of the ranking the order means little.

For the assay, the target named is GST-SBP-SLBP (stem-loop binding protein) (UniProt Q14493). Put plainly: targeted RNA Bind-n-Seq.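 Note: DESeq read counts versus GST-SBP nonspecific binding control pulldown.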 The settings on record: RBNS binding buffer: 25 mM Tris pH 7.5, 150 mM KCl, 3 mM MgCl2, 0.1% Tween, 0.5 mg/mL BSA, 1 mM DTT; 27 nM protein, 750 pM RNA pool; temperature not stated; high values mean tight binding.
For the sequence “GGUCACGUCUCAAUCAACUCAUUCCCAGGAGUUUCCUCCUGCAUUCUCAACAGCUCGCAGUCAAG”, the binding signal (log2 fold change) is 0.167. Next, “GGUCACGUCUCAAUCAACUCAAUCCCAGGAGUUUCCUCCUGUUUUCUCAACAGCUCGCAGUCAAG”: 0.175; “GGUCACGUCUCAAUCAACUCAACUUCCAGGGAAACCCCUGGCUUUUUCAACAGCUCGCAGUCAAG”: -0.191. Next, “GGUCACGUCUCAAUCAACUCUUCUCCAGGAGUUUCCUCCUGUUAAUUCAACAGCUCGCAGUCAAG”: 0.0103; “GGUCACGUCUCAAUCAACUCAUCCUCCAGGGAAACCCCUGGCUAACUCAACAGCUCGCAGUCAAG”: -0.0308; “GGUCACGUCUCAAUCAACUCAUCCUCAGGAGUUUCCUCCUGCAUAUUCAACAGCUCGCAGUCAAG”: 0.216.

Consider “GGUCACGUCUCAAUCAACUCAUUCUCCAGGGAAAUCCCUGGCAAUCUCAACAGCUCGCAGUCAAG”, for which the binding signal (log2 fold change) turned out to be 0.145. The value for “GGUCACGUCUCAAUCAACUCUUUUUCCAGGGAAAUCCCUGGCAUACUCAACAGCUCGCAGUCAAG” was -0.12; that for “GGUCACGUCUCAAUCAACUCAAUAGAGGGGGGGAAAACCCCUUUGCCCUCGGAAUCAACAGCUCGCAGUCAAG” was -0.0932; that for “GGUCACGUCUCAAUCAACUCUUCCCCCAGGGAAAUCCCUGGCUUACUCAACAGCUCGCAGUCAAG” was 0.182. Next, “GGUCACGUCUCAAUCAACUCUAUCCCCAGGGAAACCCCUGGCAAACUCAACAGCUCGCAGUCAAG”: 0.086. Next, “GGUCACGUCUCAAUCAACUCCCAAGAGGGGGGGAAAACCCCUUUACCCUCCACAUCAACAGCUCGCAGUCAAG”: -0.0596; “GGUCACGUCUCAAUCAACUCUAUCCCAGGAGUUUUCUCCUGUAUAUUCAACAGCUCGCAGUCAAG”: 0.124; “GGUCACGUCUCAAUCAACUCAUCCCCCAGGGAAAUCCCUGGCUUAUUCAACAGCUCGCAGUCAAG”: -0.0823. In the case of “GGUCACGUCUCAAUCAACUCAAGUCCAGGAGUUUACUCCUGUUUUCUCAACAGCUCGCAGUCAAG”, the binding signal (log2 fold change) was 0.0764. Next, “GGUCACGUCUCAAUCAACUCCCUAGAGGGGGGGAAAACCCCUUUACCCUCCUAUUCAACAGCUCGCAGUCAAG”: 0.0662; “GGUCACGUCUCAAUCAACUCAUCCUCCAGGGAAACCCCUGGCAAAUUCAACAGCUCGCAGUCAAG”: 0.14; “GGUCACGUCUCAAUCAACUCUUUCCCCAGGGAAAUCCCUGGCAUUUUCAACAGCUCGCAGUCAAG”: 0.115. The value for “GGUCACGUCUCAAUCAACUCUAUUUCAGGAGUUUUCUCCUGCUUACUCAACAGCUCGCAGUCAAG” was 0.0169; that for “GGUCACGUCUCAAUCAACUCAUCCCCAGGAGUUUACUCCUGUAAAUUCAACAGCUCGCAGUCAAG” was -0.0298; that for “GGUCACGUCUCAAUCAACUCUAUUUCCAGGGAAAUCCCUGGUUUUUUCAACAGCUCGCAGUCAAG” was -0.106. For the sequence “GGUCACGUCUCAAUCAACUCACAAGAGGGGGGGAAAACCCCUUUACCCUCCAACUCAACAGCUCGCAGUCAAG”, the binding signal (log2 fold change) was -0.107. The value for “GGUCACGUCUCAAUCAACUCUUAAGAGGGGGGGAAAACCCCUUUACCCUCAACAUCAACAGCUCGCAGUCAAG” was -0.132. The value for “GGUCACGUCUCAAUCAACUCUAAAGAGGGGGGGAAAACCCCUUUACCCUCAAUAUCAACAGCUCGCAGUCAAG” was 0.202; that for “GGUCACGUCUCAAUCAACUCAUCUUCCAGGGAAAUCCCUGGUUAUUUCAACAGCUCGCAGUCAAG” was -0.117; that for “GGUCACGUCUCAAUCAACUCUAUCCCCAGGGAAAACCCUGGCUAAUUCAACAGCUCGCAGUCAAG” was -0.126. On to “GGUCACGUCUCAAUCAACUCAUUUUCCAGGGAAACCCCUGGUUUACUCAACAGCUCGCAGUCAAG”, for which the binding signal (log2 fold change) is -0.00999. For the sequence “GGUCACGUCUCAAUCAACUCACUAGAGGGGGGGAAAACCCCUUUACCCUCAACUUCAACAGCUCGCAGUCAAG”, the binding signal (log2 fold change) is -0.00597.

As for “GGUCACGUCUCAAUCAACUCUAAAGAGGGGGGGAAAACCCCUUUACCCUCGCCAUCAACAGCUCGCAGUCAAG”, the binding signal (log2 fold change) is -0.0672. Next, “GGUCACGUCUCAAUCAACUCUUUUUCCAGGGAAAGCCCUGGUUUUCUCAACAGCUCGCAGUCAAG”: -0.145; “GGUCACGUCUCAAUCAACUCAUUCCCCAGGGAAAUCCCUGGCUUUCUCAACAGCUCGCAGUCAAG”: 0.142. Next, “GGUCACGUCUCAAUCAACUCAUCUCCAGGAGUUUUCUCCUGUAAUCUCAACAGCUCGCAGUCAAG”: 0.196.

Turning to “GGUCACGUCUCAAUCAACUCAUCGGAGGGGGGGAAAACCCCUUUACCCUCAUUCUCAACAGCUCGCAGUCAAG”, the binding signal (log2 fold change) was -0.201.

On to “GGUCACGUCUCAAUCAACUCAACUCCAGGAGUUUCCUCCUGUAAUGUCAACAGCUCGCAGUCAAG”, for which the binding signal (log2 fold change) is 0.032.

For the sequence “GGUCACGUCUCAAUCAACUCUCUAGAGGGGGGGAAAACCCCUUUACCCUCACUAUCAACAGCUCGCAGUCAAG”, the binding signal (log2 fold change) is -0.131. Next, “GGUCACGUCUCAAUCAACUCUUUUUCAGGAGUUUACUCCUGUAUUCUCAACAGCUCGCAGUCAAG”: 0.0101.

Take “GGUCACGUCUCAAUCAACUCUACUUCCAGGGAAAACCCUGGUUAUUUCAACAGCUCGCAGUCAAG”: the binding signal (log2 fold change) was -0.0952.
